# Measured values: PubChem BioAssay AID504466 (National Center for Advancing Translational Sciences (NCATS), 2011)
# Screen size: about 330,000 compounds; about 4,200 (1.3%) were called active. This list was built around the results that the source calls inconclusive (neither active nor inactive); the mix of calls is not that of the screen. Calls follow the shape of the dose curve; as a rule, active = well fitted activation curve with a large enough effect; inconclusive = small, poorly fitted or top-dose-only effect; inactive = no such curve, though single readings can be large or run the other way. Potencies beside an inconclusive call are fits to weak or partial responses and may not hold up.
# Assay: qHTS screen for small molecules that induce genotoxicity in human embryonic kidney (HEK293T) cells expressing luciferase-tagged ELG1; also: nearly all actives have a fitted effect of over 60% in size
# Conditions: HEK293T ELG1-luciferase reporter, luminescence, 16 h; series mostly up to 46 µM
# Outline: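 HEK293T cells expressing luciferase-tagged ELG1 were treated with compound or DMSO for 16 hr at 37°C. Luciferase activity was then read after 30 min with ONE-Glo at room temperature; rising signal flags genetic stress.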
# Potency is read from the fitted curve at half-maximal effect; tags tell the direction and shape of the fitted curve.
row,Structure (SMILES),Potency
1,O=C(COC(=O)Cn1cnc2ccccc21)Nc1cc2c(cc1Cl)C(=O)c1ccccc1C2=O,"inconclusive: 20.6 µM [activator, partial curve, poor fit]"
2,Cc1ccc(OCCCN2CCOCC2)c([N+](=O)[O-])c1,"inconclusive: 25.9 µM [activator, partial curve, poor fit]"
3,Cn1c(=O)c2c(nc(NCCc3ccccc3)n2Cc2ccc(F)cc2)n(C)c1=O,inactive
4,COc1cc(/C=C2/C(=N)N3C(SC)=NSC3=NC2=O)ccc1OC(=O)c1ccco1,"inconclusive: 18.3 µM [activator, single point]"
5,CN(Cc1nc(-c2ccccn2)no1)S(=O)(=O)c1ccccc1,"inconclusive: 29.1 µM [activator, single point]"
6,Cc1cc(C)c(NC(=O)CN(C)C(=O)C2CC(=O)N(c3cccc4ccccc34)C2)c(C)c1 (stereo not drawn),inactive
7,CCc1ccc(NC(=O)C2C3CCC(O3)C2C(=O)O)cc1 (stereo not drawn),"inconclusive: 29.1 µM [activator, partial curve, poor fit]"
8,O=c1cc(-c2ccccc2)oc2ccc(Br)cc12,"inconclusive: 2.59 µM [activator, full curve]"
9,O=S(=O)(Nc1ccc(-c2cn3ccccc3n2)cc1)c1ccccc1,"inconclusive: 14.6 µM [activator, partial curve, poor fit]"
10,CC(C)(C)C1(C)OC(=O)C(=Cc2ccc(OCC(=O)Nc3ccccc3)cc2)C(=O)O1 (stereo not drawn),"inconclusive: 23.1 µM [activator, partial curve, poor fit]"
11,Cc1nc(NC(=O)c2cc3c(s2)CCCCC3)sc1C(=O)N(C)C,"inconclusive: 16.4 µM [activator, partial curve]"
12,Cc1cc(C(=O)OCC(=O)c2c(N)n(C)c(=O)n(C)c2=O)c(C)n1-c1ccccc1,"inconclusive: 25.9 µM [activator, partial curve, poor fit]"
13,CS(=O)(=O)c1ccc2nc(NC(=O)c3cccc([N+](=O)[O-])c3)sc2c1,"inconclusive: 2.91 µM [activator, full curve]"
14,O=C(Oc1c(Cl)cc(Cl)c2cccnc12)c1cccs1,"inconclusive: 29.1 µM [activator, single point]"
15,O=C1CN(C(=O)COC(=O)c2ccccc2Br)c2ccccc2N1,inactive
16,NC(=O)c1ccccc1N/C=C/C(=O)c1ccccc1,active: 0.92 µM
17,COCCn1c(C)cc(/C=C2\NC(=S)N(C)C2=O)c1C,"inconclusive: 20.6 µM [activator, partial curve, poor fit]"
18,CCN1C(=O)c2ccc(C(=O)Nc3ccc4c(c3)OCO4)cc2C1=O,"inconclusive: 16.4 µM [activator, partial curve]"
